# The other results are listed elsewhere or left out.
# Tested on: PF3D7_0420300 AP2 domain 1 (GST-tagged)
# Assay: gcPBM binding intensity (ln(normalized median fluorescence intensity)); higher = stronger DNA binding
# How it was run: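 Using an Agilent 4 × 180k array, primer-extended double-stranded 36-bp intergenic genomic probes and negative controls were exposed for 1 h to GST-fused P. falciparum DNA-binding domains expressed in E. coli. Binding was carried out in 1× PBS with 1% milk, 0.2 mg/ml BSA, 0.5% salmon testes DNA and 0.03% Triton X-100, and protein was detected with Alexa488 anti-GST antibody and a 488 nm scan. Binding intensity is the highest Masliner-normalised natural-log median intensity across replicate spots of either probe orientation.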
row,Sequence,gcPBM binding intensity (ln)
1,AAACAAAAGTAGAAGGTAGAGTATTTTATATTTAAA [GTGCAC_negctrl_site503],9.13
2,AAATAACTCATGGGTTGTACTTAAAAAAAAAAAGAT [XGTACX_site4168],9.52
3,TTTTTTTTTTTTCACGTGCACTATACATATAAGTAA,9.2
4,CTCTTGTCATTTTGCACACACACATGGATAGGTTAT [CACACA_site5655],10.2
5,ATATATACATTTCTATGTACATATGTATATATGTAT [XGTACX_site1522],9.15
6,TTAATCTAGAGAAATTGTACATTTTATTAACACAAT [XGTACX_site1190],8.99
7,ATAAAAGAAAACAATAGTACTTTAGTTTTTCTTTTT [XGTACX_site5686],9.02
8,ACTACATAAAATGACACACACAAACTTTAAAATTTA [CACACA_site3474],9.7
9,CACCTGCACGATTGCACACAAATATGTTTTGAAGAT [CACACA_site2103],9.48
10,TATATTTGGAAACACACACACAAAAAAAAAAAAAAA [CACACA_site2474],9.63
11,ATATTTTCTAATCAATGTACTTATTCTACACATTAA [XGTACX_site5774],9.33
12,ATATTTTATGTAAAGGTGCAAAACAACATTAAAAAA,9.31
13,TAAAACATGTTTTTATATATTATTATTATATTTATA [XGTACX_negctrl_site8],9.18
14,ACCCAATTTTTTAGTACACACATATAAATATATAAA [CACACA_site4944],9.39
15,AACACATACAGACACACACACAAAAAAAAAAAAAAA [CACACA_site6322],9.65
16,AAAAAAAAAAGACACACACACAAATACAAATGGTAA [CACACA_site6906],10.1
17,TTTGTTATATTTAATACACACATATTATAAACCCAT [CACACA_site3716],9.51
18,ATAAAGCCATACAATACACACATTTTACATGGCTGT [CACACA_site5756],9.53
19,TAAAATTAGGAAATTGCACACAAAAAAAAACATATT [CACACA_site9349],9.69
20,ATACATATATATATATGTACACACATTAATAAAAAA [XGTACX_site6874],9.41
21,TATATTTTAGTTAATGCATGTGTGCATCCATTTAAA [TGCATGCA_site887],9.1
22,TATAAATAAATTTATACACACACACCCATATATATA [CACACA_site8183],10
23,TACCAAAATAGACACACACACAAAATATGTAAATAT [CACACA_site6963],10.2

row,Sequence,gcPBM binding intensity (ln)
1,ATCTAGCCATTTTTTAGTACACATAAATAAAAAAAA [XGTACX_site1257],8.96
2,CATTAATAACAAAGTTGTACAAGATAATATTATATG [XGTACX_site6832],9.27
3,TTTTATTTGACAAGCACACACTTAAATATATTTATA [CACACA_site7557],9.26
4,AAAACATTTTCAAACTGTACACATAGAACTATGCAT [XGTACX_site4087],9.24
5,ACATAAGAAGTTATATGTACATATATTTTTTAAATT [XGTACX_site8078],9.19
6,TAAACAAAATATATATGTACATATATATATATATAT [XGTACX_site6502],9.14
7,CATATATAAATCATGTGTACGTATTGAGTATCTACT [XGTACX_site6278],9.43
8,AGGATATATAATTAAGTGCATTAATTCAAAATAAAA [GTGCAC_site9702],9.17
9,ATAAGATATGTATATACACACATTTATTTACCTATA [CACACA_site7521],9.59
10,TTATTATTTTATAACACACACATATATATTATATCT [CACACA_site1434],9.64
11,ATATGACTTAAATATGTGCGCATTTTTTTTTTTTTT,9.21
12,TACACAAGAAAATTCACACACACACGGATATTTATA [CACACA_site7765],10.2
13,ACGTACTGCCCTAAAGTGCATATATAATATAAACGA [GTGCAC_site9911],9
14,GTATCGAAGTAAATACGTACTTAAATATGTTTAAAA [XGTACX_site1353],8.9
15,GTATTTTAATATAAATGTACATAAATGTTATATATA [XGTACX_site3475],9.12
16,AATATTGTATATAATAAACACACAATATTAAAAATA [CACACA_site8262],9.49
17,CTTTAAACCCTGAACACACACAAATACAGACAAAAA [CACACA_site247],9.84
18,ACATCTAATTTGTATACACACAATAATAAATGGTGA [CACACA_site824],9.33
19,TTGTATATATGACTTTTTTATATTTCAATTTTGTGC [CACACA_negctrl_site296],9.18
20,TATATATATTTATAATGTACATATTTTTTTTTATTT [XGTACX_site4761],9.27
21,TATTAATTTTTAAACATAATTTTTCGTATAATATAT [CACACA_negctrl_site762],8.97
22,GAGATAAAATAAAACACACACATATATTTATATAAC [CACACA_site7098],10
23,TTTACTTTCTTATTTTCACACATTTAAAAAAAAATT [CACACA_site5949],9.15

row,Sequence,gcPBM binding intensity (ln)
1,TATGGAAGAAAATATACACACAAAAAAAAAAAATGT [CACACA_site1486],10
2,AATTTATTATTTGTATGTACTCATATGATTCACTTA [XGTACX_site2797],9.31
3,ATACTTTTATTTTTGGTGCATATATCATGTAGACGT,9.28
4,AAATGAAATAAATGTAGTACACATATACAATATATA [XGTACX_site6951],9.39
5,TATTTTTATACAATTTAACACGGGTTATAAAATGTA [CACACA_negctrl_site566],9.02
6,TGTATATCATATATTTGTACTCAATTAATATAAACA [XGTACX_site3970],9.19
7,TTTTTTTTTTTTGTCACACATATTTGTATTAATCAT [CACACA_site5235],9.19
8,CAACATTTGAAACACACACACATACAAACAAACAAA [CACACA_site3306],10.2
9,AATATTAACAATCGCACACATATTATTTTTCCAAAA [CACACA_site4982],9.37
10,TGAAATGGAAACAACTGTACAAAATAAATATGATAT [XGTACX_site1311],9.53
11,ATATAAATATAGCATACACACAAAAAAATAAAATAA [CACACA_site2333],9.85
12,TTCCCTTTTGTAAAATGTACATATATATTTAAACAA [XGTACX_site3263],8.98
13,TTTTTATTAAAATGTATTTTAGGAAAAAACAAAAAA [XGTACX_negctrl_site437],8.82
14,TAAGTTCCCTTTGAATGTACATATAATGAAAAGAAA [XGTACX_site826],9.01
15,AAAAAACTTTTAAGCACACACATAGATAATATAGAT [CACACA_site6835],9.83
16,AATGTAAAATATATGTGTACATATGTTTATATATAT [XGTACX_site2216],9.23
17,AAATGTGTTTATTTAACACACAAAAGAAAAAATATA [CACACA_site6993],9.59
18,GTGTGTTGTATATACTGTACATACTTTATATATAGT [XGTACX_site1876],9.72
19,TATAACAAGTAATGTTGTACATTGTATTATGTAATA [XGTACX_site6372],9.07
20,TTACTCATGAAAGATACACACATTCATTATATATAT [CACACA_site3252],9.48
21,AGACATAAGATAATTACACACAATACATCCCTATAT [CACACA_site2227],9.88
22,AATAAAAATTTACTTTGTACACATATTAAATTCAAT [XGTACX_site1957],9.08
23,TACTTCTACAAGAGAAGTACAATATTTTTTATATTA [XGTACX_site8351],8.9

row,Sequence,gcPBM binding intensity (ln)
1,AAATTTACAATACATTGTACATATTAATAATATTCC [XGTACX_site3646],9.17
2,TGTAGTTTGTCCCATGCATGTTCCATTAAAATATAT [TGCATGCA_site854],9.67
3,TTAACGTAAAATATAGTGCATAGTATCATATTGATA [GTGCAC_site9527],9.17
4,CAATCAAAGAAACACACACACACCTAAACATAAAAG [CACACA_site2756],10.2
5,AATGTATATATGTAATGTACATATATAATGTATATA [XGTACX_site6510],9.19
6,AAAATCAAGTAGTATAAAGTAAGTATCATAAAAATA [CACACA_negctrl_site1554],9.36
7,ATAATAAAATGGAGAGTGCATACATGTTTATTTTAT,9.48
8,GTACACTAATTATGTGCACACAAATTAAAGGTCTAC [CACACA_site146],9.57
9,AGATATATTATTAGGTGTACTATAAAATAAATTCAC [XGTACX_site221],9.24
10,CGAACAAACAAATAAACACACAAAAAAAGATATATA [CACACA_site6944],9.72
11,AAAAAAAATTAGGAAACATGCATGTCCCGATAAATA [TGCATGCA_site149],9.29
12,AGGGAATAATATTAATGTACATATATGAACTTGTTT [XGTACX_site6089],9.43
13,TCTTTTAAAAATTAAGTGCATGTCCTTATAACAAAA,8.88
14,TATAAAAAGGAAAAATAAAAATAAAAATAAAAATTA [CACACA_negctrl_site1822],9.18
15,AAAAAAATAATGTACACACACATATCTGTTTATATA [CACACA_site4270],9.73
16,ATATTTATATATATATGTACATATGTGTGTTTTTAT [XGTACX_site3956],9.61
17,ATATATAACTTTTCTTAACACACAAAAAACAAAAAT [CACACA_site8748],9.56
18,TCATAAACATTATGCACACAAAAATAAAAAAAAATA [CACACA_site1115],9.56
19,ATAAAATATATATGCACACACATATATATTTCATAC [CACACA_site3547],9.61
20,ACATAAAATAAATATACACACATATGTATATATTAT [CACACA_site3041],9.52
21,ATATATATATATATGTGTACTTATAAATATATCTGT [XGTACX_site4337],9.32
